Here are results for one compound from patent publication US20260138976A1 (Hoffmann-La Roche Inc., priority 2022, published 2026).

This test deals with T1, DGKα (hDGKalpha(1-735)-N-His) (Homo sapiens, UniProt P23743).
T1 construct: hDGKalpha(1-735)-N-His; His (N); made in house; host or cells: Sf21 insect cells (baculovirus)
In words: In vitro DGK inhibition assay, DGKalpha ADP Glo (in house). Type of test: biochemical. The note with it: 4 nM DGKα, 25 μM ATP, 125 uM DLG in liposomes, 1 hour reaction. As to the method: DGKα and ζ kinases use ATP to phosphorylate the substrate 1,2-dilauroyl-sn-glycerol (DLG, incorporated in the liposomes). ATP is converted to ADP as a result of this enzymatic reaction. After the kinase reaction, an ATP-depletion reagent is added to terminate the kinase reaction and deplete any remaining ATP, leaving only ADP. Second, a detection reagent is added to simultaneously convert ADP to ATP and allow the newly synthesized ATP to be converted to light using a coupled luciferase/luciferin reaction.
Full length DGKα and ζ were expressed in Sf21 insect cells by infecting the cells with the baculovirus stock at MOI of 2. Purification of both enzymes was performed as previously described by Takahashi et al., PeerJ, 2018 (Takahashi, D.; Sakane, F. Expression and purification of human diacylglycerol 5 kinase alpha from baculovirus-infected insect cells for structural studies. PeerJ2018, 6, No. e5449).
A concentrated liposome solution was prepared in assay buffer without DTT and BSA: 2 mM of DLG in 21 mM of total liposome (2 mM DLG/8 mM PS/11 mM PC). […] After 1 hour reaction, the amount of ADP formed was detected with the ADP-Glo kinase assay (Promega) according to the manufacturer instructions. […] The multidrop combi was used as a liquid handler and luminescence was read with 0.5 s by the envision reader (PE).

Some entries of the source have several records that differ or are many. They are shown here; other results are not. An entry can have further records. Results that share an entry seem to repeat one measurement on other runs, samples or individuals.

T1 sequence (P23743 whole entry): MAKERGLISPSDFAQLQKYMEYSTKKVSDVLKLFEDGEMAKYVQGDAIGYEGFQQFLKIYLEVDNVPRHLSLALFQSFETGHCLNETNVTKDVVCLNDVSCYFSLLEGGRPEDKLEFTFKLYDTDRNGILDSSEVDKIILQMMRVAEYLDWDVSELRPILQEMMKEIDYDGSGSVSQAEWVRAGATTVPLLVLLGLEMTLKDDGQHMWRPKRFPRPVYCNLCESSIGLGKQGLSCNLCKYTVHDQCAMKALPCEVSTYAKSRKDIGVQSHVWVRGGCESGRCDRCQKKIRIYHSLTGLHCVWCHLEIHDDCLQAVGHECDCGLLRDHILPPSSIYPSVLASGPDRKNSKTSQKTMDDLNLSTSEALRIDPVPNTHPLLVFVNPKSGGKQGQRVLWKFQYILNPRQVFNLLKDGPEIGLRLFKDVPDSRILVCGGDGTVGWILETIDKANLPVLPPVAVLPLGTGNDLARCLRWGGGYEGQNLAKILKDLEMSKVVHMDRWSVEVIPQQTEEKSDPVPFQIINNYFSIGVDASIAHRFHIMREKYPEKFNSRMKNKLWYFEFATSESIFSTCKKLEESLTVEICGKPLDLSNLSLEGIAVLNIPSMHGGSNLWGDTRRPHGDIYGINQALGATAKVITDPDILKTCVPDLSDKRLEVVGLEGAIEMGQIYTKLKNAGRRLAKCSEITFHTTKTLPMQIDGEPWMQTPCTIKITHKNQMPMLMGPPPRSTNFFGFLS

For the compound `COc1ccc(-c2ccc(CN3C(=O)[C@@H](N)CS(=O)(=O)c4ccc(-c5nnc(C(C)(C)C#N)o5)cc43)cc2)cc1` [Example 45, 2-[5-[(3R)-3-amino-5-[[4-(4-methoxyphenyl)phenyl]methyl]-1,1,4-trioxo-2,3-dihydro-1λ^6,5-benzothiazepin-7-yl]-1,3,4-oxadiazol-2-yl]-2-methyl-propanenitrile], the IC50 was 2.09 µM and 27.7 µM [lines of one column].

The term IC50 denotes the point on the concentration scale where inhibition reaches its midpoint. A lower IC50 goes with greater potency in that assay.
